This passage reports activation results from PubChem BioAssay AID1346428 (National Center for Advancing Translational Sciences (NCATS), 2018).

Values joined by “and” are separate entries in the source; they are usually repeats but may differ in a detail not shown here. Equal values may be shown once. Hit rate of the full screen: of about 48,000 compounds, about 1,200 (2.5%) were called active. Roughly 2% stayed inconclusive and do not appear here.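 Rule for the calls: active = activation of at least 60% and not above a set upper limit (about 1 call in 100 departs from these limits); inconclusive = activation of 40% to 60%, or above that upper limit; inactive = activation under 40%.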 The list shows a part of the results. Some structures have more than one record in an assay (separate samples or runs), and their calls can disagree.

UniProt O75388, sequence (O75388 whole entry, looked up): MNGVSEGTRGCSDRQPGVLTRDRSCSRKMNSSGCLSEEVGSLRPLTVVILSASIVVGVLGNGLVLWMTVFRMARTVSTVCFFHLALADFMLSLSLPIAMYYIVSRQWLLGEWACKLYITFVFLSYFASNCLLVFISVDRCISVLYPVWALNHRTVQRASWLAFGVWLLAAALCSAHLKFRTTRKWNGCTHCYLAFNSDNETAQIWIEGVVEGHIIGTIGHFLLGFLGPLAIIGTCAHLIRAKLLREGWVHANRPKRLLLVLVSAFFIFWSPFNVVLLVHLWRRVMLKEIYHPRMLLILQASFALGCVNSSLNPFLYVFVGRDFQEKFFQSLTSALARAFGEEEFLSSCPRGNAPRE

This experiment concerns the target Probable G-protein coupled receptor 32 (Homo sapiens) (UniProt O75388). The experiment can be described thus: qHTS for Agonists of Human Resolvin D1 Receptor DRV1. Note: 0% is about no effect. The note with it: CHO-K1 GPR32 beta-arrestin PathHunter luminescence, 90 min; at 76.9 µM; stronger effect = higher value; zero percent set by DMSO-only wells. The essentials:
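Luminescent readout of beta-Gal complementation quantifies ligand-induced beta-arrestin association with GPR32 in CHO-K1 cells; 90 min compound incubation at 37 °C, detection 1 h at room temperature.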
(In general: qHTS replaces the single test concentration by a dilution series.)
Take `COc1cccc2c1cc1c(=O)n(CC(=O)NC3CCCCC3)nc(C)n12`: the activation is inactive: -4.22%. Take `CCOC(=O)c1ccc(NC(=O)Cn2c(=O)cc(C)c3c(C)nn(-c4cccc(F)c4)c32)cc1`: the activation was inactive: -14%. Regarding `OCCN1CCN(CC/C=C2/c3ccccc3Sc3ccc(C(F)(F)F)cc32)CC1`, the activation was active: 61.7% and inactive: -26.1%. The same measure for `NC(=O)CSc1oc(-c2ccco2)nc1S(=O)(=O)c1ccc(Cl)cc1`: inactive: -26.3%; for `Cc1ccc(NC(=O)c2cc3cc(C)ccc3n2C)cc1`: inactive: 12.4%; for `Cc1nn(Cc2ccccc2Cl)c(C)c1NC(=O)c1cc(C(C)C)on1`: active: 86.1%. For `CCCc1cnc2c(c1SCC(=O)N1CCC(C)CC1)c(=O)n(C)c(=O)n2C`, the activation is inactive: -9.26%. Consider `O=C(NCCc1ccccc1)c1sc2ncccc2c1-n1cccc1`, for which the activation is inactive: -18%. The same measure for `Cc1ccc(NC(=O)C(Cc2ccccc2)NS(=O)(=O)c2ccc3c(c2)oc(=O)n3C)cc1F` (centres undefined): inactive: 16.7%.

For the molecule `O=C(Nc1nc2n(n1)C(c1ccc(F)cc1)C=C(c1ccccc1)N2)c1ccc(Cl)cc1` (centres undefined), the activation is inactive: -3.96%. As to `Cc1ccc(N(CC(=O)N2CCN(c3ccccc3F)CC2)S(=O)(=O)c2c(C)noc2C)cc1`, the activation is inactive: -15.8%.

Consider `CCOC(=O)CSc1ccc2nnc(CCNS(=O)(=O)c3ccccc3)n2n1`, for which the activation was inactive: -7.01%.

On to `Cc1ccc(CCNC(=O)C(NS(=O)(=O)c2ccc3c(c2)oc(=O)n3C)C(C)C)cc1` (centres undefined), for which the activation was inactive: 1.38%. As to `O=C(Nc1cccc(C(=O)OCc2cc(=O)n3nc(C4CC4)sc3n2)c1)c1cccc(F)c1`, the activation was inactive: 3.1%. Consider `COc1cc2c(cc1OC)C(c1ccc(F)cc1)N(c1cccc(C#N)c1)C(=O)C2` (centres undefined), for which the activation is inactive: 8.94%. Regarding `Cn1c(=O)c(=O)n(C)c2cc(S(=O)(=O)N3CCCC3C(=O)Nc3ccccc3F)ccc21` (centres undefined), the activation is inactive: -14%. For `O=C(NCCc1ccccc1)c1ccc2c(c1)N(Cc1c(F)cccc1Cl)C(=O)CS2` the value was inactive: -8.73%. With `CCOc1ccc(-n2c(SCC(=O)NCC3CCCO3)nc3c([nH]c4ccccc43)c2=O)cc1` (centres undefined), the activation is inactive: -11.7%. Consider `COc1ccc(Cn2ccn(Cc3cccc(C)c3)c(=O)c2=O)cc1`, for which the activation was inactive: -6.74%. On to `COc1cc2c(cc1OC)C(COc1ccc3c(C)cc(=O)oc3c1)N(C(=O)c1cccc(C)c1)CC2` (centres undefined), for which the activation is inactive: 4.66%. On to `Cc1ccc(N(CC(=O)Nc2cccc(F)c2)S(=O)(=O)c2cccs2)cc1`, for which the activation was inactive: -4.06%. For `COc1ccc(NC(=O)CSc2nncn3c2cc2oc(C)cc23)cc1OC` the value was inactive: -4.1%; for `CCc1ccc(NC(=O)CSc2nccn2-c2ccc(OC)cc2)cc1`, inactive: 0.156%; for `CC1(C(=O)Nc2cccc(Br)c2)Cc2ccccc2C(=O)O1` (centres undefined), inactive: 23.6%. For `CC(=O)N1CCCc2cc(S(=O)(=O)N3CCC(C(=O)NC4CCC(C)CC4)CC3)ccc21` (centres undefined) the value was inactive: -0.528%; for `CNC(=O)C1CCC(Cn2c(=O)c3sccc3n(Cc3ccc(F)cc3)c2=O)CC1` (centres undefined), inactive: 10.5%; for `COCCCNC(=O)CCC(=O)N1Cc2cccc(OC)c2Oc2ncccc21`, inactive: -6.23%. For `CCn1c(C(=O)NCc2ccccc2C)cc2oc3ccccc3c21` the value was inactive: 32.7%; for `COC(=O)c1ccccc1NC(=O)c1ncoc1-c1ccco1`, inactive: 12.9%; for `CCCc1cc(=O)oc2c3c(ccc12)OCN(Cc1ccc(OC)cc1)C3`, inactive: -24%. As for `NC(N)=NS(=O)(=O)c1ccc(N)cc1`, the activation was inactive: -3.49%. For `Cc1ccccc1OCCSc1nc2ccc(NC(=O)c3ccccc3)cc2s1` the value was inactive: 8.62%; for `Cc1nc(-c2cccc(NC(=O)Nc3ccc([N+](=O)[O-])cc3)c2)no1`, inactive: -1.05%; for `COCC(=O)NCc1nc2cccnc2n1Cc1ccc(F)cc1`, inactive: -2.28%. As for `Cc1ccc(NC(=O)CSc2ccc(-c3cccs3)nn2)cc1Cl`, the activation was inactive: -4.99%. For `CN(c1ccccc1)S(=O)(=O)c1ccc(NC(=O)c2cc(=O)c3ccccc3o2)cc1` the value was inactive: -4.26%; for `Cc1oc(C)c2c(=O)cc(-c3ccc4c(c3)OCO4)cc(OC(=O)c3cccc(Br)c3)c12`, inactive: -2.65%; for `O=C(CCn1cnnn1)Nc1ccc(F)cc1`, inactive: -9.77%. For the molecule `COc1ccc(Nc2cc(C(=O)NCCCN3CCN(c4ccc(OC)cc4)CC3)c3ccccc3n2)cc1`, the activation is inactive: -36.7%. For `COc1ccc(-n2ncc(C(=O)NCCc3ccsc3)c2C2CCN(C(=O)OC(C)(C)C)CC2)cc1` the value was inactive: -9.87%; for `Cc1ccc(Cn2c(CNS(=O)(=O)c3ccc(F)c(Cl)c3)nc3cccnc32)cc1`, inactive: -27%; for `Cc1ccccc1CCNC(=O)c1ccc2c(c1)nc1n2CCC(C)C1` (centres undefined), inactive: -10.1%.

Regarding `COc1ccccc1C1Nc2ccccc2-n2c(-c3ccccc3)c3c(=O)n(C)c(=O)n(C)c3c21` (centres undefined), the activation is inactive: -15%. As to `Cc1cc(NC(=O)c2cccc(Cl)c2)ccc1-c1cc2ccccc2oc1=O`, the activation was inactive: -6.72%.

Take `Cc1noc(-c2ccc(N3CCCCC3)c([N+](=O)[O-])c2)n1`: the activation is inactive: 6.98%. The same measure for `CCCCc1nn2c(=O)cc(COC(=O)c3ccc(NC(=O)c4ccccc4C)cc3)nc2s1`: inactive: 12.2%; for `Cc1cc(F)ccc1NS(=O)(=O)c1ccc(-n2cccn2)cc1`: active: 106%. As for `COc1ccc(-c2noc(-c3ccc(N4CCN(c5ccccc5)CC4)c([N+](=O)[O-])c3)n2)cc1OC`, the activation is inactive: -1.12%. Consider `CCOC(=O)C1(C)C=C(Nc2cccc(C(=O)O)c2)C(=O)N1c1cccc(C(=O)O)c1` (centres undefined), for which the activation was inactive: 9.07%. With `COc1ccc(OC)c(CNC(=O)Cc2ccc(NC(=O)N3CCSc4ncccc43)cc2)c1`, the activation is inactive: 1.84%. Turning to `O=C(C1CCN(c2ncnc3c2nc2n3CCCCC2)CC1)N1CCN(c2cccc(Cl)c2)CC1`, the activation was inactive: -5.14%. As to `Cc1ccc(CCNC(=O)c2ccc3c(c2)nc2n3CCC(C)C2)cc1` (centres undefined), the activation was inactive: -15.2%. On to `COc1cc2c(cc1OC)C(COc1ccccc1OC)N(C(=O)COc1ccc(Cl)cc1)CC2` (centres undefined), for which the activation was inactive: 37.8%. For the molecule `Cc1cn[nH]c1`, the activation is inactive: -7.81% and inactive: 2.07%. For `O=C1CS(=O)(=O)C2(C(=O)N(Cc3ccccc3)c3ccccc32)N1c1ccccc1` (centres undefined) the value was inactive: -9.13%; for `Cc1cc(C)n(CCc2nc3c4ccccc4nc(N4CCN(c5ccccc5)CC4)n3n2)n1`, inactive: 1.49%. The same measure for `COc1cccc(CNC(=O)C2CCCCN2S(=O)(=O)c2ccc(F)cc2)c1` (centres undefined): inactive: -1.24%; for `CCCCNC(=O)C1CCC(Cn2c(=O)c3sccc3n(CC(=O)N3CCCC3)c2=O)CC1` (centres undefined): inactive: -4.49%; for `Clc1cccc(-n2ncc3c(N4CCC(Cc5ccccc5)CC4)ncnc32)c1`: inactive: -17.4%.

As to `Cc1cc(C)cc(NC(=O)C(=O)NCC(c2cccnc2)N2CCc3ccccc3C2)c1` (centres undefined), the activation is inactive: -18.1%. As to `CCc1ccccc1NC(=O)c1sc2nc3c(cc2c1N)CN(Cc1ccccc1)CC3`, the activation was inactive: -13.4%.

Turning to `O=C(CSc1nncn2c1cc1sccc12)Nc1ccc(Br)cc1F`, the activation was inactive: -13.8%. As for `CCOC(=O)c1c(C)oc2nc(C)nc(NCc3ccc(OC)cc3OC)c12`, the activation is inactive: 1.09%. In the case of `COC(=O)c1cccnc1-n1c(=O)c2cccnc2n(CC(=O)Nc2ccccc2F)c1=O`, the activation is inactive: -4.53%. For `O=C(Nc1cc(C(F)(F)F)ccc1Cl)c1nc2ccccc2nc1N1CCCCC1` the value was inactive: 11.1%; for `O=C(Cn1c(=O)nc(-c2ccccc2)c2ccccc21)NCc1ccc(Cl)cc1`, inactive: -9.37%; for `CCc1ccc(NC(=O)CCn2nc(C)c(S(=O)(=O)N3CCCCC3)c2C)cc1`, inactive: 3.92%.

Turning to `CCOc1ccc(Cn2c(CNS(=O)(=O)c3ccc(Cl)s3)nc3cccnc32)cc1`, the activation was inactive: -29.5%. On to `COc1cccc(N2CCN(S(=O)(=O)c3ccc(-n4cnnn4)cc3)CC2)c1`, for which the activation was inactive: 0.538%. For `COc1ccc2c(C)cc(SCC(=O)Nc3nsc(-c4ccccc4C)n3)nc2c1` the value was inactive: -6.21%. Take `CCOC(=O)c1ccccc1NC(=O)Cn1c(=O)n(-c2cccc(C)c2)c(=O)c2c1c1cc(C)ccc1n2C`: the activation was inactive: -13.2%. In the case of `CCOc1ccccc1NC(=O)C1CCN(S(=O)(=O)c2ccc3c(c2)CC(C)N3C(C)=O)CC1` (centres undefined), the activation is inactive: 3.97%. Take `O=C(NCC(c1ccc2c(c1)OCO2)N1CCOCC1)c1cccc(Cl)c1` (centres undefined): the activation is inactive: -23.1%. `COc1cc(C2C(C(=O)Nc3ccccc3C)=C(C)Nc3ncnn32)ccc1OCC(N)=O` (centres undefined): the activation is inactive: -7.26%. For `O=C(NCc1ccc(Cl)cc1)C(=O)NCC(c1cccs1)S(=O)(=O)c1cccs1` (centres undefined) the value was inactive: -0.305%; for `CC1CCN(c2ccc(-c3cccc(NS(=O)(=O)c4ccc(Cl)s4)c3)nn2)CC1`, inactive: -20.4%. For `CCCOc1ccc(-c2nonc2NC(=O)COc2ccc(C)cc2)cc1OCCC` the value was inactive: 3.03%; for `COCCn1c(SCC(=O)c2ccc(OC)cc2)nc2cc(C(=O)NC3CCCC3)ccc2c1=O`, inactive: -42.6%; for `CC(C)(C)NC(=O)Cn1cc(S(=O)(=O)Cc2ccc(F)cc2)c2ccccc21`, inactive: -13.4%.

In the case of `CCOC(=O)CNC(c1ccccc1)c1cc(Br)ccc1NC(=O)c1ccc(Cl)cc1` (centres undefined), the activation is inactive: -33%. For `CC(=O)c1c(C)oc2c(Cl)cc(NS(=O)(=O)c3cc(C)c(C)cc3C)cc12`, the activation was inactive: 5.81%. For `Cc1ccc(S(=O)(=O)c2nnn(CC(=O)Nc3ccccc3C)c2N)cc1C` the value was inactive: 12.9%; for `O=C(CCC1N=C2c3ccccc3N=C(SCc3ccccc3Cl)N2C1=O)NCc1cccs1` (centres undefined), inactive: -22.3%.

Consider `O=C(NCc1ccccc1F)C(=O)NCC(c1cccs1)S(=O)(=O)c1cccs1` (centres undefined), for which the activation is inactive: 39%.
